The source of these data is PMC6919601, “Identification of Plasmodium dipeptidyl aminopeptidase allosteric inhibitors by high throughput screening” (PLoS ONE, 2019).

Molecules are shown by their SMILES. Several values for one entry are separate records, joined by “and”; a condition that tells them apart may be missing. Identical values can stand only once. Out of some 110,000 compounds screened, about 230 (0.21%) showed an effect of 50% or more. This is one part of the list.
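Note: 30 min substrate incubation versus DMSO and 10 µM JCP410 controls.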

The target of this experiment is DPAP1 (Plasmodium falciparum, UniProt Q8IIJ9). In words: primary screen, percent inhibition; read by cleavage of a fluorogenic dipeptide substrate; higher = more effect of the substance. Also on record: species or system P. falciparum D10 trophozoite lysates; single well.
Sequence of DPAP1 (Q8IIJ9 whole entry, looked up): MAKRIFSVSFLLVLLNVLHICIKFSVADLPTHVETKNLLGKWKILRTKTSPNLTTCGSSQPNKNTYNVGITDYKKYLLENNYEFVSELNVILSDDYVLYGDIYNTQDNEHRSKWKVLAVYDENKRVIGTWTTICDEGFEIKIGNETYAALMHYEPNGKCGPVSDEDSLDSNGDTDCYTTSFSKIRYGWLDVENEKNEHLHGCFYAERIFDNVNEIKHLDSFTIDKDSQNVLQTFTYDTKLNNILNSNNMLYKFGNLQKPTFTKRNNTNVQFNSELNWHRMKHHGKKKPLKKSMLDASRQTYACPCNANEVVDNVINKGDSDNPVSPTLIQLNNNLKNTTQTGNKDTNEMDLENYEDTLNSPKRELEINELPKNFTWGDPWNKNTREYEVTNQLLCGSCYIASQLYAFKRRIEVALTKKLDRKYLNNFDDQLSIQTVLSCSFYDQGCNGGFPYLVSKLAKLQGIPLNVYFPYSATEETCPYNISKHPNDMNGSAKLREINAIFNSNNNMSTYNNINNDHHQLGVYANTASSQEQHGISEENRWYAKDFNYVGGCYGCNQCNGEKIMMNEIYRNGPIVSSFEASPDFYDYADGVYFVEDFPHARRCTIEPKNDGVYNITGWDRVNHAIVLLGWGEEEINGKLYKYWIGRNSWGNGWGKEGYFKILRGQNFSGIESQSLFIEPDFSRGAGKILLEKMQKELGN
For the compound `COC(=O)c1sccc1-n1cccc1`, the “% Inhibition @ 10 uM” value is recorded as -5.32%.
For `COC(=O)C1=C(C)OC(N)=C(C#N)C1c1cc(Br)c(O)c(Br)c1` (stereo not shown), the “% Inhibition @ 10 uM” value is recorded as 0.4%.
The result for `CC(NC(=O)CN1C(=O)CSc2ncccc21)c1ccccc1` (stereo not shown) reads 2.65%; that for `Cc1cc(OCC(=O)N2CCN(Cc3ccccc3)CC2)cc(C)c1Br`, -5.81%; that for `COc1cccc(NC(=O)c2ccc(Cl)cc2)c1`, -1.25%.
The result for `CC1CCC2(CC1)N=C(c1cccc(F)c1)C(=O)N2` (stereo not shown) reads 2.35%; that for `N#CCNC(=O)[C@H](CS(=O)(=O)Cc1cc(C(F)(F)F)cc(C(F)(F)F)c1)NC(=O)c1ccccc1`, -6.98%; that for `CC(C)N(Cc1ccccc1)C(=O)c1cc(S(=O)(=O)N2CCOCC2)cn1C`, -1.26%.
Regarding `Fc1ccccc1N1CCN(Cc2ccc(Cl)c(Cl)c2)CC1`, the “% Inhibition @ 10 uM” value amounted to 3.1%.
Regarding `Cc1ccc(CNC(=O)CCNS(=O)(=O)c2ccc3nc(O)ccc3c2)o1`, the “% Inhibition @ 10 uM” value is -0.544%.
On to `Sc1nc2ccccc2n1CCOc1ccccc1`, for which the “% Inhibition @ 10 uM” value was 13.5%.
The value for `N#CC1=C2SCN(C3CCCC3)CN2C(=O)CC1c1ccc(Cl)cc1` (stereo not shown) was 55.3%.
With `CC(=O)c1cc(F)c(N2CCN(C(=O)c3ccc(F)c(F)c3)CC2)cc1C`, the “% Inhibition @ 10 uM” value is recorded as 4.83%.
The result for `CCCCCC(=O)N1CCN(CC/N=C/C2=C(O)CC(c3ccco3)CC2=O)CC1` (stereo not shown) reads -3.14%; that for `Cc1ccccc1CSc1nc2c(sc3ccccc32)c(=O)n1CCO`, 8.13%.
On to `COc1ccc(Br)cc1C(=O)Nc1ccccc1N1CCCC1`, for which the “% Inhibition @ 10 uM” value was determined as 2.4%.
As to `COCCCNC(=O)/C(C#N)=C/c1c(Oc2ccc(OC)cc2)nc2c(C)cccn2c1=O`, the “% Inhibition @ 10 uM” value turned out to be 2%.
The value for `O=C1NCCCc2cc(Cl)sc21` was 1.64%; that for `CCc1ccc(CNC(=O)CN(C)c2nnc(-n3cccc3)s2)cc1` was -2.25%.
Take `Nc1nonc1-n1nnc(C(=O)O)c1-c1ccccc1`: the “% Inhibition @ 10 uM” value was determined as 1.62%.
Turning to `CC1Oc2ccccc2C=C1/C=C1\SC(N2CCOCC2)=NC1=O` (stereo not shown), the “% Inhibition @ 10 uM” value was -1.63%.
The value for `Cc1ccc(C23CC4CC(CC(C(=O)NC(C)(C)CO)(C4)C2)C3)cc1` was 3.65%; that for `CC(=O)Nc1ccc(NC(=O)CN(c2ccc(Cl)cc2)S(C)(=O)=O)cc1` was -9.02%; that for `CCOC(=O)N1CCC(NC(=O)CCc2c(C)nc3cc(-c4ccc(Cl)cc4)nn3c2C)CC1` was 1.26%.
The value for `Cc1cc(OCCn2cc(C(=O)O)c3ccccc32)ccc1Cl` was 3.93%; that for `CN(C)CCCC1(O)c2ccccc2CCc2ccccc21` was -2.63%; that for `Cc1ccccc1-c1nnc(CN2CCc3ccccc3C2)o1` was 2.44%.
As for `CCN1C/C(=C\c2ccccc2)C(=O)/C(=C/c2ccccc2)C1`, the “% Inhibition @ 10 uM” value is reported as 7.57%.
On to `COc1ccc2c(CNCCc3ccccc3)c(C(=O)O)n(Cc3ccc(F)cc3Cl)c2c1`, for which the “% Inhibition @ 10 uM” value turned out to be 6.19%.
The result for `O=C(c1cc(S(=O)(=O)N2CCCCC2)c[nH]1)N1CCN(CCOc2ccc(Cl)cc2)CC1` reads -2.22%; that for `COc1ccc(S(=O)(=O)Nc2cnn(Cc3c(F)cccc3Cl)c2)cc1`, 6.37%; that for `CCOC(=O)N1CCC(NC(=O)c2cnn(-c3ccccc3)c2-n2cccc2)CC1`, -3.35%.
Regarding `O=C(CCN1C(=O)c2ccccc2C1=O)Nc1cccc(Cl)c1`, the “% Inhibition @ 10 uM” value is on record as -0.366%.
The value for `COc1cccc2c1OC(CCSC)N1N=C(c3cc(C)ccc3O)CC21` (stereo not shown) was -1.68%.
For `CSC1=C(C#N)C(c2ccccc2Cl)CC(=O)N1` (stereo not shown), the “% Inhibition @ 10 uM” value was determined as 3.96%.
The value for `CC1=C(C(=O)Nc2ccc(C)cn2)C(c2ccc(Br)cc2)C2=C(O)CC(C)(C)CC2=N1` (stereo not shown) was 2.36%.
The result for `O=C(CCCN1C(=O)C(c2ccccc2)Oc2cccnc21)NCCc1cccs1` (stereo not shown) reads -0.995%.
The result for `COCCCNC(=O)CSc1nc2c(sc3ccccc32)c(=O)n1Cc1ccccc1Cl` reads 1.41%; that for `COc1cccc(CNC(=O)c2cc3oc4ccccc4c3n2C)c1`, 1.38%.
On to `O=S(=O)(c1cccc2cccnc12)N1CCCCC1`, for which the “% Inhibition @ 10 uM” value is on record as -3.77%.
Consider `COc1ccc(-c2cc3c(=O)n(CC(=O)NCCC4=CCCCC4)ncn3n2)cc1`, for which the “% Inhibition @ 10 uM” value is listed as -6.58%.
On to `CCC(Sc1nc2ccncc2[nH]1)C(=O)NCCc1ccccc1` (stereo not shown), for which the “% Inhibition @ 10 uM” value is reported as -0.637%.
The result for `O=C(/C=C/c1ccccc1Cl)Nc1ccc(Cl)cc1` reads 2.94%; that for `CC(C)Cn1c(=O)c2sccc2n2c(CCCC(=O)N3CC=C(c4ccccc4)CC3)nnc12`, -1.31%.
The value for `NC(=O)c1cc(-c2csc(N)n2)ccc1O` was 4.42%.
The value for `COc1ccc(CN2CCN(S(C)(=O)=O)CC2)c(OC)c1OC` was -1.2%.
For `Oc1nnc(SCc2cccc3ccccc23)c(O)n1`, the “% Inhibition @ 10 uM” value is -2.6%.
In the case of `COc1ccc(C2NC(S)=NC3=C2CCc2ccc(OC)cc23)cc1` (stereo not shown), the “% Inhibition @ 10 uM” value is given as 1.42%.
For the compound `O=C(Cn1nc(C(F)(F)F)cc1C1CC1)Nc1cccc(F)c1`, the “% Inhibition @ 10 uM” value was determined as 3.24%.
The value for `CC(Cc1ccccc1F)N(CCO)Cc1ccccc1` (stereo not shown) was -1.75%.
Regarding `Cc1ccc(S(=O)(=O)N2CCC(C(=O)N3CCC(C(=O)NC4CCCC4)CC3)CC2)cc1`, the “% Inhibition @ 10 uM” value stood at 0.387%.
`Cn1c(=O)c2c(ncn2CC(=O)Nc2ccc(Cl)cc2C(=O)c2ccccc2)n(C)c1=O`: the “% Inhibition @ 10 uM” value came out at 4.49%.
Regarding `O=C(O)c1cccc2c1NC(C(=O)O)C1CC=CC21` (stereo not shown), the “% Inhibition @ 10 uM” value was found to be 65.6%.
The result for `CC1=CC(C)(C)N(CC(=O)c2ccccc2)c2ccc(C)cc21` reads 0.912%.
Regarding `Cc1cc(C)n2ncc(C(=O)O)c2n1`, the “% Inhibition @ 10 uM” value is -2.2%.
`CCC1CCCCN1C(=O)c1c(OC)cccc1OC` (stereo not shown): the “% Inhibition @ 10 uM” value worked out at 5.42%.
The result for `Cc1cc(CO)c(C)n1-c1ccc(Cl)c(Cl)c1` reads -2.87%.
The result for `O=C(Cn1ncn2c(cc3sccc32)c1=O)NCCc1ccc(Cl)cc1` reads -1.58%; that for `COc1ccc(NC(=O)Cc2cccs2)c(OC)c1`, -9.24%.
As to `O=C(CNS(=O)(=O)c1ccccc1)N1CCN(C(c2ccccc2)c2ccccc2)CC1`, the “% Inhibition @ 10 uM” value is reported as -8.92%.
The value for `COc1ccc(NC(=O)/C(=C/c2cccs2)NC(=O)c2ccc(C)c(C)c2)cc1` was 2.26%; that for `Cc1c(CN2CCN(c3ncccn3)CC2)c(=O)n(-c2ccccc2)n1C` was 3.48%; that for `Cc1c(C(c2cc(Cl)cc([N+](=O)[O-])c2O)c2c(C)n(C)n(-c3ccccc3)c2=O)c(=O)n(-c2ccccc2)n1C` was 1.87%.
As for `CCN1C(=O)c2ccc(-c3nc4cc(Cl)ccc4o3)cc2C1=O`, the “% Inhibition @ 10 uM” value is -0.598%.
The result for `Cn1c(=O)c2c(-c3ccc(Cl)cc3)n(-c3ccc(O)cc3)cc2n(C)c1=O` reads -4.95%.
The result for `COc1ccc(Cl)cc1N1C(=O)C(Cl)=C(Nc2cccc(O)c2)C1=O` reads 3.96%; that for `O=C(Nc1ccccc1)Nc1ccc(S(=O)(=O)NC2CCCCC2)cc1`, 1.25%.
The value for `Cc1cccc(NC(=O)NC(=O)c2ccc3ccccc3c2)c1` was 5.73%; that for `CN(Cc1ccccc1)C(=O)Nc1ccccc1` was -0.351%.
In the case of `COc1cc(/C=C2\Sc3ccccc3C2=O)c([N+](=O)[O-])cc1OC`, the “% Inhibition @ 10 uM” value is reported as 0.634%.
The result for `CC(C)OP(=O)(OC(C)C)C(OC(N)=O)c1ccc(Br)cc1` (stereo not shown) reads 5.48%; that for `Cc1nc2ccccc2nc1N1CCOCC1`, -0.711%; that for `COc1cc(C2Oc3ccccc3C3CC(c4ccccc4O)=NN32)cc(OC)c1OC` (stereo not shown), -5.36%.
The result for `CN(C(=O)Cn1cc(S(=O)(=O)Cc2ccccc2F)c2ccccc21)C1CCCCC1` reads -1.6%; that for `Cc1ccc(OCc2nnc(-c3ccccc3Cl)o2)cc1`, 3.74%.
For the compound `Cc1cc(C)c2c(-n3cccc3)c(C(=O)N3CCN(C)CC3)sc2n1`, the “% Inhibition @ 10 uM” value is on record as -4.68%.
For `CCOc1ccc(NC2=NS(=O)(=O)c3ccccc32)cc1`, the “% Inhibition @ 10 uM” value was determined as 5.68%.
Regarding `CCCc1nn(-c2ccc(F)cc2)c(O)c1/C=N/CCc1ccc(S(N)(=O)=O)cc1`, the “% Inhibition @ 10 uM” value is recorded as -4.91%.
The result for `Nc1c(NCCN2CCCCC2)c2ccccc2oc1=O` reads -8.15%; that for `COc1cc(C(CC(=O)NCCN2CCOCC2)N2Cc3ccccc3C2=O)cc(OC)c1OC` (stereo not shown), -6.53%.
For the compound `Cc1ccccc1C1C(C#N)=C(N)Oc2ncnc(O)c21` (stereo not shown), the “% Inhibition @ 10 uM” value was -0.994%.
`NC1=NC(c2ccccc2)n2c(nc3ccccc32)N1` (stereo not shown): the “% Inhibition @ 10 uM” value is on record as -3.13%.
In the case of `COc1ccccc1Nc1nc(-c2ccccc2)cs1`, the “% Inhibition @ 10 uM” value is 7.62% and -0.771%.
The result for `COc1cccc(C2CC(C(F)(F)F)n3ncc(C(=O)NCC4CCCO4)c3N2)c1` (stereo not shown) reads -3.53%; that for `COc1ccc(/C=C/c2nc(C#N)c(N3CC(C)CC(C)C3)o2)cc1OC` (stereo not shown), 2.54%; that for `COc1ccc(-c2cc(C(F)F)n3ncc(C(=O)Nc4ccc5c(c4)OCCO5)c3n2)cc1`, -14.8%.
As to `CCOCCCNC(=O)c1nnc(Cc2ccc(Cl)cc2Cl)o1`, the “% Inhibition @ 10 uM” value is reported as -1.14%.
The result for `Cn1c(N2CCCCCC2)nc2c1c(=O)[nH]c(=O)n2C` reads -1.2%.
The value for `O=S(=O)(NCCOc1ccccc1)c1ccc2oc3cc(-n4cnnn4)ccc3c2c1` was 3.68%; that for `CCN(CC)C(=O)c1cc2c(O)nc3ccccc3c2s1` was 1.23%; that for `Cc1ccc(S(=O)(=O)N(CC(=O)N2CCN(c3ccc(F)cc3)CC2)Cc2ccccc2)cc1` was -4.93%.
As to `COc1ccc(-c2nnc(-c3ccc(OC)c(OC)c3)o2)cc1OC`, the “% Inhibition @ 10 uM” value stood at 2.41%.
Take `Cc1nc2ccc(S(=O)(=O)NCC(=O)N(C)Cc3ccco3)cc2s1`: the “% Inhibition @ 10 uM” value is -2.45%.
As for `CCOC(=O)N1CCN(C(=O)c2cc(-c3ccc(F)cc3)[nH]c2C)CC1`, the “% Inhibition @ 10 uM” value is given as -8.34%.
The result for `Cc1cc(C)c(C#N)c(SCc2ccc(Cl)nc2)n1` reads -6.51%; that for `CC(C)(C)OC(=O)N1CCC(c2nc(O)c3nnn(Cc4ccccc4Cl)c3n2)CC1`, -1.15%; that for `CCNc1nc(NCC)nc(Oc2ccc(C(=O)OCC)cc2)n1`, -4.7%.
For `CCOc1cc(C)c(C)cc1S(=O)(=O)n1ccnc1C`, the “% Inhibition @ 10 uM” value came to 0.245%.
On to `CN(C)c1ccc(CN2CCN(c3ccccc3F)CC2)cc1`, for which the “% Inhibition @ 10 uM” value was -2.7%.
The value for `CCc1ccc(C(=O)c2cn(CC(N)=O)c3nc(C)ccc3c2=O)cc1` was -1.34%.
